Where “and” joins values, the source holds several entries; their conditions need not be identical. Equal entries are not always repeated. The whole screen tested about 370,000 compounds, of which about 150 (0.041%) were called active. Inconclusive means that the source gave no clear call. Such entries were picked first, then a sample of the others. The call rests on the fitted dose curve; in most records, active means well fitted inhibition curve with a large enough effect; inconclusive means small, poorly fitted or top-dose-only effect; inactive means flat fitted curve, though single readings scatter. A potency beside an inconclusive call is a rough fit, not a confirmed value.
Target: Beta-lactamase (Escherichia coli (strain K12)) (UniProt P00811)
Chain of UniProt P00811 (P00811 whole entry, looked up): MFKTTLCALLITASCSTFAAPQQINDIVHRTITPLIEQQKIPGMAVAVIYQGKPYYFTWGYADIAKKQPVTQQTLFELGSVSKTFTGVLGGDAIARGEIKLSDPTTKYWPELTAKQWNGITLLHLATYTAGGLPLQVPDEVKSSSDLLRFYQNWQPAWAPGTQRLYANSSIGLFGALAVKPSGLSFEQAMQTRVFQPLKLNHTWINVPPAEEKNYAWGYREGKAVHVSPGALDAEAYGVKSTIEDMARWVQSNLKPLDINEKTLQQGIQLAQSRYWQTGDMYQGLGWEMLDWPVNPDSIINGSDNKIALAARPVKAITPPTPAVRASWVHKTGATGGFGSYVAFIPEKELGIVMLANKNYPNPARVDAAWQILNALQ
Assay: qHTS Inhibitors of AmpC Beta-Lactamase (assay with detergent); further: nearly all actives have a fitted effect of over 25% in size
Details: AmpC hydrolysis of nitrocefin, absorbance 480 nm, 0.01% Triton; series mostly up to 114 µM
How it was run: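 AmpC (5.3 nM in the dispensed reagent) in 20 mM phosphate pH 7.0 with 0.01% (detergent screen) or 0.0001% Triton X-100 was preincubated with compounds for 15 min at room temperature. Nitrocefin was then added from an 800 uM solution, and hydrolysis was followed at 480 nm.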
Potency means the concentration at half of the fitted maximal effect; tags describe the fitted curve by direction and shape.

SMILES | Potency
O=C(c1ccc(=O)oc1)N1CCN(C(c2ccccc2)c2ccccc2)CC1 | inconclusive: 1.58 µM [inhibitor, full curve]
O=C(C1CCC1)N1CCCc2cc(S(=O)(=O)Nc3ccc(F)cc3)ccc21 | inactive
CC1(C)Cc2c(sc(NC(=S)NC(=O)c3ccccc3)c2C(=O)O)CO1 | inconclusive: 89.1 µM [inhibitor, single point]
CC1CCc2nc3ccccc3c(C(=O)OCC(=O)NC3CCS(=O)(=O)C3)c2C1 (stereo not drawn) | inactive
O=C(NCCn1cccn1)c1ccc(OC2CCN(C(=O)C3CC3)CC2)cc1 | inactive
CC(C)Oc1ccc(/C(O)=C2/C(=O)C(=O)N(CCN(C)C)C2c2ccco2)cc1 (stereo not drawn) | inconclusive: 2.24 µM [inhibitor, single point]
COc1ccc(-c2noc(CN3CCN(c4cccc(Cl)c4)CC3)n2)cc1 | inactive
O=C(CCCn1c(=O)[nH]c2ccsc2c1=O)N1CCCCC1 | inactive
Cc1csc(SCC(=O)Nc2nc(-c3ccccc3)cs2)n1 | inconclusive: 5.62 µM [inhibitor, full curve]
CCN(C(=O)c1ccc(S(=O)(=O)N2CCC(C)CC2)cc1)C1CCS(=O)(=O)C1 (stereo not drawn) | inconclusive: 0.631 µM [inhibitor, full curve, poor fit]
CC(=O)N/C(=C\c1ccccc1)C(=O)OCC(=O)NC(=O)c1ccccc1 | inconclusive: 0.891 µM [inhibitor, full curve]
O=C(N/N=C/c1cccc2cccnc12)c1ccccc1O | inactive
COc1ccc(CNC(=O)CN(CC2CCCO2)C(=O)CNS(=O)(=O)c2ccc(C)cc2)cc1 (stereo not drawn) | inconclusive: 0.562 µM [inhibitor, full curve, poor fit]
O=C(OCCOc1ccccc1Cl)c1ccc(-n2cnnn2)cc1 | inactive
Clc1ccc(SCCOCCN2CCCCCC2)cc1 | inconclusive: 126 µM [inhibitor, partial curve, poor fit]
CNC(=O)c1cccc(NC(=O)C(C)c2ccc3cc(OC)ccc3c2)c1 (stereo not drawn) | inactive
O=C1CCCN1Cc1ncnn1-c1ccccc1 | inconclusive: 17.8 µM [inhibitor, partial curve, poor fit]
S=C(Nc1ccc2snnc2c1)N1CCN(c2ccccn2)CC1 | inconclusive: 22.4 µM [inhibitor, full curve, poor fit]
COc1cccc(NC(=O)C(=O)N/N=C/c2ccc3c(c2)OCO3)c1 | inconclusive: 0.631 µM [inhibitor, full curve]
Cc1ccc(S(=O)(=O)NC(=O)c2cc(C)n(CCCn3ccnc3)c2C)cc1 | inconclusive: 1.26 µM [inhibitor, full curve]
O=C(COc1ccc(/C=N/NC(=O)c2ccccc2Br)cc1)Nc1ccccc1 | inconclusive: 44.7 µM [inhibitor, partial curve, poor fit]
COc1cccc(NC(=O)Cc2nnc(SCC(=O)NC3=NCCS3)n2C)c1 | inconclusive: 5.01 µM [inhibitor, full curve, poor fit]
Cc1nnc2c(N3CCN(CCO)CC3)nc3ccccc3n12 | inactive

SMILES | Potency
O=C(O)CSCc1nc2ccccc2[nH]1 | inconclusive: 1.58 µM [inhibitor, full curve]
CCc1noc(C)c1C(=O)N1CCN(S(=O)(=O)c2cccs2)CC1 | inactive
Cc1ccccc1CN1CCC(Oc2ccc(C(=O)N3CCCC3)cc2)CC1 | inactive
CC(C)(C)c1ccc(S(=O)(=O)N2CCN(CCC#N)CC2)cc1 | inconclusive: 5.62 µM [inhibitor, full curve, poor fit]
O=C(C[n+]1ccncc1)c1ccccc1 | inconclusive: 1.26 µM [inhibitor, full curve]
Nc1nc(SCC(=O)c2c(N)n(Cc3ccccc3)c(=O)[nH]c2=O)n[nH]1 | inconclusive: 89.1 µM [inhibitor, single point]
COC(=O)C1=C(C)N(Cc2ccccc2)C(=NCC(C)C)N[C@H]1c1cccc(F)c1 | inconclusive: 8.91 µM [inhibitor, full curve]
N#Cc1ccccc1NC(=O)CN1CCOCC1 | inactive
COC(=O)c1cc(NCc2ccccc2F)ccc1N1CCOCC1 | inconclusive: 100 µM [inhibitor, partial curve, poor fit]
COc1ccc(NC(=O)C(CCS(C)(=O)=O)NC(C)=O)cc1 (stereo not drawn) | inactive
Cc1scc(C(=O)O)c1-c1c(C(=O)O)csc1C | inconclusive: 10 µM [inhibitor, full curve, poor fit]
CC(C)(C)c1ccc(NC(=O)N2CCN(c3ccc([N+](=O)[O-])cn3)CC2)cc1 | inactive
COc1ccccc1C(=O)N1CCN(C(=O)Cc2ccccc2)CC1 | inactive
CCOC(=O)c1c(C)[nH]c(C)c1S(=O)(=O)NCC(=O)N(C)c1ccc(C)c(C)c1 | inactive
COC(=O)c1ccc(N=NN2CCOCC2)cc1 | inactive
Cc1nnc(NC(=O)CSc2ncnc3c2cnn3-c2ccccc2C)s1 | inactive
Cc1ccccc1NC(=O)C1COc2ccccc2O1 (stereo not drawn) | inconclusive: 0.631 µM [inhibitor, full curve, poor fit]
CC(C)(C)OC(=O)NCC(=O)N1CCC(C(=O)O)CC1 | inconclusive: 12.6 µM [inhibitor, full curve, poor fit]
Cc1cccc(N(CC(=O)NCc2ccc3c(c2)OCO3)C(=O)CCC(=O)Nc2ccccn2)c1C | inconclusive: 2.82 µM [inhibitor, full curve, poor fit]
COc1ccc(C(=O)NCC23C=CC(O2)C2C(=O)N(Cc4ccccc4)C(=O)C23)cc1 (stereo not drawn) | inconclusive: 5.01 µM [inhibitor, full curve]
N#C/C(=C/c1ccc(CNS(=O)(=O)c2ccccc2)o1)C(=O)NCc1ccccc1 | inconclusive: 31.6 µM [inhibitor, full curve, poor fit]
C=CCCC(=O)Nc1nc(C)c(-c2csc(Nc3ccc(Cl)cc3)n2)s1 | inconclusive: 0.708 µM [inhibitor, full curve]
C/C(=N\O)C(C)Oc1ccc(Cl)cc1 (stereo not drawn) | inconclusive: 0.631 µM [inhibitor, full curve, poor fit]

SMILES | Potency
CCCNC(=O)C(Cc1ccc(I)cc1)NC(=O)c1ccc2ccccc2n1 (stereo not drawn) | inactive
Cc1cccc(Nc2nnc(SCC(=O)Nc3ccccc3[N+](=O)[O-])s2)c1 | inconclusive: 56.2 µM [inhibitor, partial curve]
COc1cc(/C=N/NC(=O)c2ccccn2)ccc1OC(=O)c1ccc(Br)cc1 | inactive
COc1ccccc1C(=O)NCCC(=O)NCC(c1ccco1)N1CCCC1 (stereo not drawn) | inconclusive: 10 µM [inhibitor, partial curve, poor fit]
CCOCCOC(=O)COc1ccc(N2C(=O)c3ccccc3C2=O)cc1 | inconclusive: 0.562 µM [inhibitor, full curve, poor fit]
CCOC(=O)C1=C(CSc2nc3c(cc2C#N)CN(C)CC3)OC(N)=C(C#N)C1c1ccc(Cl)cc1 (stereo not drawn) | inconclusive: 5.01 µM [inhibitor, full curve, poor fit]
CC1(C)Cc2c(sc(NC(=O)c3ccc(S(=O)(=O)N4CCCCCC4)cc3)c2C#N)C(C)(C)N1 | inconclusive: 0.631 µM [inhibitor, full curve, poor fit]
COc1ccc(C(=O)Cn2nnc(-c3ccccc3NC(=O)C3CC3)n2)cc1 | inconclusive: 89.1 µM [inhibitor, partial curve, poor fit]
Cc1cc(C)c2c(C)c(C(=O)N3CCC(c4nc5ccccc5s4)CC3)oc2c1 | inactive
CC(C)NC(=O)COC(=O)c1cccc(NS(=O)(=O)/C=C/c2ccccc2)c1 | inconclusive: 7.94 µM [inhibitor, full curve]
COc1ccc(NC(=O)c2ccccc2N(Cc2ccccc2)S(C)(=O)=O)c(OC)c1 | inconclusive: 0.708 µM [inhibitor, full curve, poor fit]
O=C(c1nn2c(C(F)(F)F)cc(-c3ccc(F)cc3)nc2c1Cl)N1CCOCC1 | inconclusive: 0.708 µM [inhibitor, full curve]
O=C(CCC1COc2ccccc2O1)NCc1ccccc1 (stereo not drawn) | inconclusive: 35.5 µM [inhibitor, full curve]
CCn1cc(CN2CCC(C(=O)Nc3cccc(-c4cccc(Cl)c4)c3)CC2)cn1 | inconclusive: 0.708 µM [inhibitor, full curve, poor fit]
COc1ccc(-c2cc(=O)oc3cc(OCC(=O)Nc4ccc(CCO)cc4)ccc23)cc1 | inactive
C=CCn1cccc(C(=O)Nc2ccc(OC)c(OC)c2)c1=O | inconclusive: 4.47 µM [inhibitor, full curve, poor fit]
O=C(NCCCN1CCN(c2ccccc2F)CC1)C1CC(=O)N(C2CCCC2)C1 (stereo not drawn) | inactive
CCOc1cc(/C=C2\C(=O)N(CCc3ccc(OC)c(OC)c3)C(C)=C2C(=O)OC)ccc1O | inconclusive: 112 µM [inhibitor, partial curve, poor fit]
CCn1c2ccc(F)cc2c2nnc(SCCN3CCCCC3)nc21 | inactive and inconclusive: 631 nM [inhibitor, full curve, poor fit]
CN1CCN2c3ncccc3Cc3ccccc3[C@@H]2C1 | inconclusive: 39.8 µM [inhibitor, single point]
O=C(/C=C/c1ccco1)NC(=S)Nc1cccc(C(=O)O)c1 | inconclusive: 112 µM [inhibitor, partial curve, poor fit]
COC(=O)[C@@H]1CC[C@@](C)(c2ccc(OC)cc2)C1(C)C | inconclusive: 7.94 µM [inhibitor, full curve]

— PubChem BioAssay AID485294 (National Center for Advancing Translational Sciences (NCATS), 2010)
